{
  "source": "paper PMC9911399",
  "about": "“Two distinct binding modes provide the RNA-binding protein RbFox with extraordinary sequence specificity”",
  "binders": {"B1": {"name": "ACAGAUU (DNA:RNA)", "RNA": "GGGAGACCGGAAUUCAGAUUGUCCACAGAUUUUAAAUCCCGUCGUAGCCACCA", "DNA 1": "CAATCTGAATTCCGGTCTCCC", "DNA 2": "TGGTGGCTACGACGGGATT"}, "B2": {"name": "UGCUGUG (DNA:RNA)", "RNA": "B1 RNA with A25U, C26G, A27C, G28U, A29G, U31G", "DNA 1": "CAATCTGAATTCCGGTCTCCC", "DNA 2": "TGGTGGCTACGACGGGATT"}, "B3": {"name": "AUUGCGG (DNA:RNA)", "RNA": "B1 RNA with C26U, A27U, A29C, U30G, U31G", "DNA 1": "CAATCTGAATTCCGGTCTCCC", "DNA 2": "TGGTGGCTACGACGGGATT"}, "B4": {"name": "AGACCAA (DNA:RNA)", "RNA": "B1 RNA with C26G, G28C, A29C, U30A, U31A", "DNA 1": "CAATCTGAATTCCGGTCTCCC", "DNA 2": "TGGTGGCTACGACGGGATT"}, "B5": {"name": "AUCAUCC (DNA:RNA)", "RNA": "B1 RNA with C26U, A27C, G28A, A29U, U30C, U31C", "DNA 1": "CAATCTGAATTCCGGTCTCCC", "DNA 2": "TGGTGGCTACGACGGGATT"}, "B6": {"name": "CUCGGAG (DNA:RNA)", "RNA": "B1 RNA with A25C, C26U, A27C, A29G, U30A, U31G", "DNA 1": "CAATCTGAATTCCGGTCTCCC", "DNA 2": "TGGTGGCTACGACGGGATT"}, "B7": {"name": "GAAAUUC (DNA:RNA)", "RNA": "B1 RNA with A25G, C26A, G28A, A29U, U31C", "DNA 1": "CAATCTGAATTCCGGTCTCCC", "DNA 2": "TGGTGGCTACGACGGGATT"}, "B8": {"name": "UGAGAUC (DNA:RNA)", "RNA": "B1 RNA with A25U, C26G, U31C", "DNA 1": "CAATCTGAATTCCGGTCTCCC", "DNA 2": "TGGTGGCTACGACGGGATT"}, "B9": {"name": "CAGGCGA (DNA:RNA)", "RNA": "B1 RNA with A25C, C26A, A27G, A29C, U30G, U31A", "DNA 1": "CAATCTGAATTCCGGTCTCCC", "DNA 2": "TGGTGGCTACGACGGGATT"}},
  "note": "Numbering of substitutions follows the chain as printed; changes in the protein carry UniProt numbers. The list shows a part of the results.",
  "data": [
    {"molecular_target": "T1, RBFOX1 RRM (Homo sapiens, UniProt Q9NWB1 109-208)", "T1 sequence": "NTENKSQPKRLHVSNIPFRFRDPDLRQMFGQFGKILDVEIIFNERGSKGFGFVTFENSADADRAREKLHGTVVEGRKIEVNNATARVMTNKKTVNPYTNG", "test": "EMSA; HiTS-Eq, 1 nM pool, 10 min; buffer printed only for the single-RNA assays: 10 mM Tris pH 7.5, 150 mM NaCl, 3.4 mM EDTA, 0.001% NP-40, 30 C", "conditions": "tags: His6 N-terminal (pET28a); label: 5' 32P", "how_it_was_run": "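Purified RbFox RRM, wild type or mutant, was incubated for 10 min in 50 µL with 1 nM of a 5′-radiolabelled RNA pool carrying 7 randomized nucleotides, whose flanks were annealed to DNA oligonucleotides, over a series of increasing protein concentrations. Unbound RNA was resolved on 8% native PAGE, cut out, reverse-transcribed, barcoded by PCR and sequenced on an Illumina HiSeq 2500. Relative association constants were derived from changes in read counts for each RNA species versus the control reaction and normalised to the cognate motif.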", "values": [
      {"binder": "B1", "binding signal": "0.00352 KA relative to UGCAUGU"},
      {"binder": "B2", "binding signal": "0.0347 KA relative to UGCAUGU"},
      {"binder": "B3", "binding signal": "0.0083 KA relative to UGCAUGU"},
      {"binder": "B4", "binding signal": "0.00293 KA relative to UGCAUGU"},
      {"binder": "B5", "binding signal": "0.000273 KA relative to UGCAUGU"},
      {"binder": "B6", "binding signal": "0.00953 KA relative to UGCAUGU"},
      {"binder": "B7", "binding signal": "0.00565 KA relative to UGCAUGU"},
      {"binder": "B8", "binding signal": "0.0218 KA relative to UGCAUGU"},
      {"binder": "B9", "binding signal": "0.0102 KA relative to UGCAUGU"}
    ]}
  ]
}
